The campaign covered roughly 390,000 compounds. About 17,000 (4.4%) were called active. Inconclusive means that the source gave no clear call. Such entries were picked first, then a sample of the others. Calls come from the whole dose curve; as a rule, active = well fitted inhibition curve with a large enough effect; inconclusive = small, poorly fitted or top-dose-only effect; inactive = no such curve, though single readings can be large or run the other way. A potency beside an inconclusive call is a rough fit, not a confirmed value.
Target: Lysine-specific demethylase 4A (Homo sapiens) (UniProt O75164)
Experiment: qHTS Assay for Inhibitors of JMJD2A-Tudor Domain; note: nearly all actives have a fitted effect of over 50% in size
Details: AlphaScreen JMJD2A-Tudor / H3K4me3 peptide binding; series mostly up to 114 µM
Potency is the fitted concentration of half-maximal effect; tags give direction and shape of the fitted curve.

UniProt O75164, sequence (O75164 whole entry, looked up, the tested form may be a part): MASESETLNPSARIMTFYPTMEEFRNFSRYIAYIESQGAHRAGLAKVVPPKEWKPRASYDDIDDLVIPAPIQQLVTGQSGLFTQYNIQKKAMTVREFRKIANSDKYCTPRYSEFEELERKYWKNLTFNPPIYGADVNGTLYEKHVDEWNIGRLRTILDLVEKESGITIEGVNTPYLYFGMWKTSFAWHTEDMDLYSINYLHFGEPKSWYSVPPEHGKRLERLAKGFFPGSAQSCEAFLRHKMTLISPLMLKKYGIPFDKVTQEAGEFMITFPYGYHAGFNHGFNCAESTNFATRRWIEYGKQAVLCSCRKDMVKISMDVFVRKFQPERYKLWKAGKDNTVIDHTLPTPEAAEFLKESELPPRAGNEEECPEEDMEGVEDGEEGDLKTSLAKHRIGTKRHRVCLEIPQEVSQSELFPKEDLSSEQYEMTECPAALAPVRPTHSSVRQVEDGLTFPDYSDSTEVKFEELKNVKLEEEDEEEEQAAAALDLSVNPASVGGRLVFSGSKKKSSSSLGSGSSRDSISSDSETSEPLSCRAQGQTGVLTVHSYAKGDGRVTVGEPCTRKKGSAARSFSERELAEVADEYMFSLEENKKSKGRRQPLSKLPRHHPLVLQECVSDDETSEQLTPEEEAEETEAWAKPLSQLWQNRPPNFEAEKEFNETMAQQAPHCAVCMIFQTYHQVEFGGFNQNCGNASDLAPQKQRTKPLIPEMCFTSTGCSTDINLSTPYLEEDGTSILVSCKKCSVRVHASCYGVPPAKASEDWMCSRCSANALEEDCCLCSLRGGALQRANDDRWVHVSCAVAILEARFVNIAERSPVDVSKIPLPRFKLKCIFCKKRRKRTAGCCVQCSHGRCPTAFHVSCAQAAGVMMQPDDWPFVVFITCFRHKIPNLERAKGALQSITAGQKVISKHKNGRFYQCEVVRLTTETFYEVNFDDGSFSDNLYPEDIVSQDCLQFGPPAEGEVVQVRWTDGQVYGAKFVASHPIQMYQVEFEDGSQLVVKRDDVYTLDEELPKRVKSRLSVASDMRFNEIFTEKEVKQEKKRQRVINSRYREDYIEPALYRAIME

Row | Compound | Potency
1 | COc1cc(C2C(C#N)=C(N)Oc3n[nH]c(-c4ccncc4)c32)cc(OC)c1OC (centres undefined) | inconclusive: 50.1 µM [inhibitor, partial curve]
2 | Cc1[nH]n(-c2nc(-c3cccc([N+](=O)[O-])c3)cs2)c(=O)c1C | inactive
3 | COc1ccc(S(N)(=O)=O)cc1N(C)S(=O)(=O)c1ccccc1 | inconclusive: 28.2 µM [inhibitor, single point]
4 | Cn1c(=O)c([N+](=O)[O-])c(-n2ccnc2)c2ccccc21 | inactive
5 | Cc1ccc(S(=O)(=O)N2CCC3(CC2)OCCN3S(=O)(=O)c2c(C)cc(C)cc2C)cc1 | inactive
6 | CCn1c(-c2csc3c2CCC(C)C3)n[nH]c1=S (centres undefined) | active: 35.5 µM
7 | COc1cc(/C=C2/SC(=O)N(Cc3ccccc3)C2=O)ccc1OCc1ccncc1 | inconclusive: 79.4 µM [inhibitor, partial curve]
8 | CN(CC(=O)NCc1ccc(F)cc1)S(=O)(=O)c1ccc2c(c1)c(=O)n(C)c(=O)n2C | inactive
9 | O=C(Cc1csc(N2CCOCC2)n1)N/N=C/c1ccc(Cl)cc1Cl | inconclusive: 89.1 µM [inhibitor, partial curve]
10 | COc1cccc(Nc2nc(-c3sc(NC(=O)c4ccco4)nc3C)cs2)c1 | inconclusive: 50.1 µM [inhibitor, partial curve]
11 | CC1=C/C(=N\N=C2\NC(=O)C(CC(=O)Nc3ccccc3)S2)CC(C)(C)C1 (centres undefined) | inconclusive: 15.8 µM [inhibitor, full curve]
12 | CCN(CC)CCN(C(=O)c1c(F)cccc1F)c1nc2cc(C)cc(C)c2s1 | inconclusive: 44.7 µM [inhibitor, partial curve]
13 | [O-][n+]1c2ccccc2cc2ccccc21 | inconclusive: 28.2 µM [inhibitor, full curve]
14 | Cc1cccc([N+](=O)[O-])c1C(=O)O | inconclusive: 79.4 µM [inhibitor, partial curve]
15 | Nc1nc(-c2ccccc2)c(CCCNc2ccccc2)c(=O)[nH]1 | inconclusive: 56.2 µM [inhibitor, partial curve]
16 | O=C(N/N=C/c1c[nH]c2ccc(Br)cc12)c1ccncc1 | inconclusive: 70.8 µM [inhibitor, single point]
17 | COc1ccc(CN2C(=O)c3ccccc3C(/C=N\OCc3ccc(C)cc3)C2=O)cc1 (centres undefined) | inconclusive: 89.1 µM [inhibitor, single point]
18 | Cc1noc(C)c1COc1ccc(C(=O)N2CCN(c3cccc(Cl)c3)CC2)cc1 | inconclusive: 100 µM [inhibitor, single point]
19 | COc1ccc(C2C=C3CNS(=O)(=O)C3CC2OC(=O)c2ccc(Cl)cc2)cc1 (centres undefined) | inactive
20 | N#C/C(=N\Nc1cccc([N+](=O)[O-])c1)C(=O)c1ccc(Br)cc1 | active: 39.8 µM
21 | CC1=C(c2ccc(C(C)C)cc2)S(=O)(=O)N=C1N1CCN(C(=O)c2ccco2)CC1 | active: 44.7 µM
22 | CCOC(=O)NCc1ccc2[nH]c(C)cc2c1 | inconclusive: 56.2 µM [inhibitor, partial curve]
23 | CCC(C)(C)n1nnnc1C(c1ccc(OC)c(OC)c1)N1CCN(c2ccc(F)cc2)CC1 (centres undefined) | inconclusive: 79.4 µM [inhibitor, partial curve]

Row | Compound | Potency
24 | CCn1c(SCC(=O)Nc2ccc(N(C)C)cc2)nnc1-c1cccc(C)c1 | inconclusive: 50.1 µM [inhibitor, partial curve]
25 | COc1ccc(CN(C)C(=O)Cn2cc(C)c(=O)[nH]c2=O)cc1OC | active: 79.4 µM
26 | CCOC(=O)C1=C(C)N(c2ccccc2)C(=O)/C1=C\c1ccco1 | inconclusive: 31.6 µM [inhibitor, partial curve]
27 | Cc1nc(-c2ccccc2)sc1C1(C)CC(c2ccc([N+](=O)[O-])cc2)=NO1 (centres undefined) | inconclusive: 35.5 µM [inhibitor, partial curve]
28 | COc1ccc(C[C@H]2CN3C(=NC[C@H]3Cc3ccccc3)N2CCNC(=O)c2ccc(C)c(Br)c2)cc1 | inconclusive: 56.2 µM [inhibitor, partial curve]
29 | CSc1nc(N)nc2c1ncn2CC(=O)N1CCN(Cc2c(C)cc(C)cc2C)CC1 | inconclusive: 100 µM [inhibitor, partial curve, poor fit]
30 | C#CCOCCOCCOCCNc1nc(N2CCN(C(=O)C([C@@H](C)O)n3cc([C@@H](N)CCCCN)nn3)CC2)nc(N2CCN(C(=O)[C@H](CCC(=O)O)n3cc([C@@H](N)CCCCN)nn3)CC2)n1 (some centres undefined) | inconclusive: 50.1 µM [inhibitor, partial curve]
31 | COc1ccc(N2CCN(Cc3nc4c(c(=O)[nH]c(=O)n4C)n3Cc3ccccc3)CC2)cc1 | inactive
32 | Cn1c(=O)c2sccc2n2c(CCC(=O)NCc3ccccc3)nnc12 | inactive
33 | O=C(CNC(=O)c1ccco1)OCc1cccc(Cl)c1 | inactive
34 | O=C1CCCC(O)=C1N=Nc1c(Cl)cc(Cl)cc1Cl | inconclusive: 3.55 µM [inhibitor, full curve]
35 | O=C(N/N=C/c1ccc[nH]1)c1cc(-c2cccs2)nc2ccccc12 | inconclusive: 44.7 µM [inhibitor, partial curve]
36 | CC1(C)CC(=O)c2c(oc3cc(O)c(O)cc23)C1 | active: 14.1 µM
37 | COc1ccc(C)cc1-n1c(-c2ccncc2)n[nH]c1=S | active: 20 µM
38 | COc1ccc(NC(=O)Nc2ccc3c(c2)C(=O)N([C@H](C)CO)C[C@H](C)[C@@H](CN(C)S(=O)(=O)c2ccccc2)O3)cc1 | inconclusive: 79.4 µM [inhibitor, partial curve]
39 | COc1cc(/C=C/C=C2/CC/C(=C/C=C/c3ccc(O)c(OC)c3)C2=O)ccc1O | active: 56.2 µM
40 | Cc1cc(O)c(-c2cc(O)c(C)cc2O)cc1O | active: 5.01 µM
41 | CC(C)C1=CC(=Nc2ccc(S(N)(=O)=O)cc2)C=C(C(C)C)C1=O | active: 56.2 µM
42 | Cc1ccc(CCCOC(=O)C[N+]2(C)CCCC2)cc1 | inconclusive: 50.1 µM [inhibitor, partial curve]
43 | O=C(CSc1nnc(SCC(=O)c2ccco2)s1)c1ccco1 | active: 20 µM
44 | CCn1nc(C)c(C(=O)Nc2cc(Oc3cc(C)cc(C)c3)cc([N+](=O)[O-])c2)c1C | inconclusive: 22.4 µM [inhibitor, full curve]
45 | C[C@@H]1CCCCCCCCC(=O)OCCN(C(=O)OC(C)(C)C)[C@H](C)CCCCCCCCC(=O)OCCN(C(=O)OC(C)(C)C)[C@H](C)CCCCCCCCC(=O)OCCN1C(=O)OC(C)(C)C | inactive
46 | COc1ccc(N2CCN(C(=O)CCCN3C(=O)c4cccc5cccc(c45)C3=O)CC2)cc1 | inconclusive: 39.8 µM [inhibitor, full curve]

Row | Compound | Potency
47 | CC1CCCC2(C1)NC(=S)N(c1ccccc1)N2 (centres undefined) | active: 79.4 µM
48 | Cc1ccc(OCCCCCN2CCOCC2)c(Cl)c1 | active: 22.4 µM
49 | CN(Cc1ccccc1)c1nc2c(c(=O)n(C)c(=O)n2C)n1CCCc1ccccc1 | inconclusive: 56.2 µM [inhibitor, partial curve]
50 | C/C(Cn1nnc([N+](=O)[O-])n1)=N\NC(=O)c1ccccc1O | active: 44.7 µM
51 | Cc1ccc(NC(=O)C2CCN(S(=O)(=O)c3ccc(N4CCCC4=O)cc3)CC2)cc1Cl | inactive
52 | S=c1[nH]nc2ccccn12 | active: 6.31 µM
53 | CC1CN(c2ccc([N+](=O)[O-])c(NCCOc3ccccc3)c2)CCN1 (centres undefined) | inconclusive: 63.1 µM [inhibitor, partial curve, poor fit]
54 | Cc1cccc(/C=C2\CCC(=C3SCCCS3)C2=O)c1 | active: 44.7 µM
55 | CCOc1ccccc1OCC(=O)Nc1cc(S(=O)(=O)N2CCCCC2)ccc1OC | inactive
56 | CCOc1ccc(-c2noc(CSc3nnc(Cc4ccccc4)n3-c3cccc(C)c3)n2)cc1 | inconclusive: 11.2 µM [inhibitor, full curve, poor fit]
57 | CCCCN1C(=O)C(=O)c2cc(Cl)ccc21 | inconclusive: 56.2 µM [inhibitor, partial curve]
58 | CC1CCCN(C(=O)Cn2nnc(-c3ccc(F)cc3)n2)C1 (centres undefined) | inconclusive: 0.794 µM [inhibitor, full curve]
59 | Cn1ccnc1C(O)(c1ccccc1)c1nccn1C | inconclusive: 28.2 µM [inhibitor, partial curve]
60 | COc1cnc(-c2ccccn2)nc1Oc1cccc(Cl)c1 | inactive
61 | CCOC(=O)c1cnc2ccc(C)cc2c1Nc1ccc(N2CCOCC2)cc1 | active: 28.2 µM
62 | C#CCOCCOCCOCCNc1nc(N2CCN(C(=O)[C@H](CCC(=O)O)n3cc(C(N)CC(C)C)nn3)CC2)nc(N2CCN(C(=O)[C@H](Cc3ccc(O)cc3)n3cc(C(N)CC(C)C)nn3)CC2)n1 (some centres undefined) | active: 79.4 µM
63 | CC1(C)[N+]([O-])=C2C(=[N+]([O-])C1(C)C)c1ccccc1/C2=N\O | inactive
64 | COc1cc(Cl)c(C)cc1NC(=O)c1cnc2c(-c3cccc(C)c3)c(C)nn2c1C | inactive
65 | COc1cccc(CNC(=O)c2cc3c(cc2Cl)N2CCCCCC2=NS3(=O)=O)c1 | inactive
66 | CCN(CC)S(=O)(=O)c1ccc(-c2csc(C)n2)cc1 | inconclusive: 20 µM [inhibitor, full curve]
67 | C/C(=N\Nc1nc2ccccc2[nH]1)c1ccc2c(c1)OCO2 | active: 39.8 µM
68 | Clc1ccc(C2[C@H]3CN(CC4CCCCC4)[C@H](c4ccccc4)C34CC2(c2cccnc2)C4)cn1 (some centres undefined) | inconclusive: 14.1 µM [inhibitor, full curve]
69 | CCOC(=O)/C(=N/Nc1ccccc1)Sc1nnc(CCc2ccccc2)n1-c1ccccc1 | inconclusive: 50.1 µM [inhibitor, partial curve]

Reference: PubChem BioAssay AID504339 (National Center for Advancing Translational Sciences (NCATS), 2011)
